From the supplement of paper PMC9446081
In all, about 39,000 compounds went through this assay and about 220 (0.56%) showed activity. The list shows a part of the results.
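Note: static incubation at 37 °C against the wild-type strain, values averaged over two biological replicates.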

These compounds were tested on Escherichia coli K-12 BW25113 (assay: relative growth (OD600 normalised to plate interquartile mean) (fraction); higher = less growth inhibition, active = 0.2 or less). Details: 50 µM; LB; incubation time: overnight (16-24 h).
For `O=C(CS)NCCCCCCNC(=O)[C@@H]1C[C@@H]2C(=O)N[C@@H](Cc3ccccc3)C(=O)N2[C@@H]1c1cccc(OCCO)c1`, the relative growth was inactive: 1.01.
For `Cc1noc(C)c1NC(=O)N(C)C[C@H]1OCCCC[C@H](C)Oc2ccc(NS(=O)(=O)c3ccc(Cl)cc3)cc2C(=O)N([C@H](C)CO)C[C@@H]1C`, the relative growth was inactive: 1.
`CN(Cc1ccccc1)C[C@H]1C[C@@H](c2ccc(CO)cc2)O[C@H](c2ccc(NC(=O)CCCCCCC(=O)NO)cc2)O1` was tested, and the relative growth was inactive: 0.977.
In the case of `CN1C(=O)c2cc(NC(=O)c3cccs3)ccc2OC[C@@H]2O[C@@H](CC(=O)NCC(F)(F)F)CC[C@@H]21`, the relative growth is reported as inactive: 0.993.
For `O=C(CN1CCOCC1)NCC[C@H]1CC[C@H](NS(=O)(=O)c2ccc(Cl)cc2)[C@@H](CO)O1`, the relative growth was inactive: 0.996.
`Cc1noc(C)c1S(=O)(=O)N(C)C[C@H]1OCCCC[C@@H](C)Oc2ccc(NS(=O)(=O)c3cn(C)cn3)cc2C(=O)N([C@@H](C)CO)C[C@H]1C` was tested, and the relative growth was inactive: 0.977.
For `CN(C)CCCNC(=O)C[C@@H]1CC[C@H]2[C@@H](COC[C@@H](O)CN2S(=O)(=O)c2ccc(Cl)cc2)O1`, the relative growth was inactive: 0.995.
In the case of `C[C@H]1CN([C@@H](C)CO)C(=O)Cc2cc(NC(=O)CCCN(C)C)ccc2O[C@H]1CN(C)S(=O)(=O)c1ccc(F)cc1`, the relative growth is reported as inactive: 0.975.
In the case of `Cc1occc1CN`, the relative growth is reported as inactive: 0.984.
`O=C(C[C@@H]1CC=CC[C@@H](NC(=O)OCC2c3ccccc3-c3ccccc32)C(=O)OC[C@@H](Cc2c[nH]c3ccccc23)NC1=O)N[C@H](CO)Cc1ccccc1` was tested, and the relative growth was inactive: 0.96.
In the case of `O=C(C[C@H]1C=C[C@H](NC(=O)CN2CCOCC2)[C@@H](CO)O1)NCCc1ccccc1`, the relative growth is reported as inactive: 0.982.
`NC(=O)COc1ccccc1` was tested, and the relative growth was inactive: 0.995.
For `O=C(C[C@H]1C[C@@H]2c3cc(NC(=O)c4ccc5c(c4)OCO5)ccc3O[C@@H]2[C@H](CO)O1)NCCc1ccccc1`, the relative growth was inactive: 0.987.
With `COc1cc2c(cc1OC)CN(C(=O)[C@H]1[C@@H]3C(=O)O[C@@H](c4ccccc4)[C@@H](c4ccccc4)N3[C@@H](c3ccc(O)cc3)[C@]13C(=O)Nc1ccc(C#CC4=CCCCC4)cc13)CC2` the relative growth was inactive: 1.03.
For `C[C@@H]1CCCCO[C@H](CN(C)Cc2ccc(C(=O)O)cc2)[C@H](C)CN([C@@H](C)CO)C(=O)c2cc(NC(=O)c3ccccc3)ccc2O1`, the relative growth was inactive: 1.01.
In the case of `C[C@@H]1CN([C@@H](C)CO)C(=O)c2cc(NC(=O)CCN3CCOCC3)ccc2O[C@H]1CN(C)Cc1ccncc1`, the relative growth is reported as inactive: 1.01.
For `C[C@H]1CN([C@@H](C)CO)S(=O)(=O)c2ccc(C3=CCCCC3)cc2O[C@@H]1CN(C)C(=O)C1CCOCC1`, the relative growth was inactive: 1.02.
With `Cc1noc(C)c1NC(=O)Nc1ccc2c(c1)C(=O)N([C@@H](C)CO)C[C@H](C)[C@@H](CN(C)C(=O)c1ccccc1)OCCCC[C@@H](C)O2` the relative growth was inactive: 0.989.
For `Cc1noc(C)c1NC(=O)Nc1ccc2c(c1)CC(=O)N([C@@H](C)CO)C[C@H](C)[C@H](CN(C)C(=O)Nc1ccc(C(F)(F)F)cc1)O2`, the relative growth was inactive: 0.971.
`COc1cc(CO)cc(I)c1O[C@H]1C=C(C(=O)NCCO)C[C@@H](N(Cc2ccc(F)cc2)C(=O)[C@H]2CCCO2)[C@@H]1O` was tested, and the relative growth was inactive: 0.997.
For `CCCNC(=O)Cc1nnc[nH]1`, the relative growth was inactive: 1.02.
For `C[C@@H]1CN([C@@H](C)CO)C(=O)c2cccc(NC(=O)c3ccncc3)c2O[C@H]1CN(C)Cc1ccc2c(c1)OCO2`, the relative growth was inactive: 0.991.
For `COc1ccc(S(=O)(=O)N(C)C[C@@H]2OCCCC[C@@H](C)Oc3ccc(NC(=O)Nc4ccc5c(c4)OCO5)cc3C(=O)N([C@H](C)CO)C[C@@H]2C)cc1`, the relative growth was inactive: 1.05.
With `COc1cccc(NC(=O)N(C)C[C@H]2OCc3ccccc3-c3c(n(C)c4ccccc34)C(=O)N([C@@H](C)CO)C[C@@H]2C)c1` the relative growth was inactive: 0.985.
`O=C(C[C@@H]1CC[C@H](NC(=O)c2cnccn2)[C@H](CO)O1)NCc1ccccc1F` was tested, and the relative growth was inactive: 1.01.
With `C[C@@H]1CN([C@@H](C)CO)C(=O)c2cc(NC(=O)Nc3ccc4c(c3)OCO4)ccc2O[C@@H](C)CCCCO[C@H]1CN(C)Cc1ccccc1` the relative growth was inactive: 1.06.
With `C[C@@H]1CN([C@H](C)CO)C(=O)Cc2cc(NC(=O)Nc3cccc4ccccc34)ccc2O[C@H]1CN(C)C(=O)Nc1ccc2c(c1)OCO2` the relative growth was inactive: 0.975.
For `COCCNC(=O)[C@H]1[C@H](CO)[C@H]2Cn3c(cccc3=O)[C@@H]1N2S(=O)(=O)c1ccccc1C`, the relative growth was inactive: 0.988.
`C[C@H](CO)N1C[C@H](C)[C@H](CN(C)Cc2ccncc2)Oc2ccc(NS(=O)(=O)c3ccccc3)cc2C1=O` was tested, and the relative growth was inactive: 0.984.
`COc1ccc(CN(C)C[C@@H]2OCCCC[C@@H](C)Oc3ccc(NC(=O)CCC(F)(F)F)cc3C(=O)N([C@@H](C)CO)C[C@@H]2C)cc1` was tested, and the relative growth was inactive: 0.996.
With `Nc1ncn([C@H]2C[C@H](O)[C@@H](CO)O2)c(=O)n1` the relative growth was inactive: 0.918.
In the case of `C[C@@H]1CCCCO[C@H](CN(C)C(=O)Nc2ccccc2)[C@H](C)CN([C@H](C)CO)C(=O)c2cc(NC(=O)Nc3ccc(C(F)(F)F)cc3)ccc2O1`, the relative growth is reported as inactive: 1.05.
For `CN(CCO)S(=O)(=O)c1cccc(C(=O)O)c1`, the relative growth was inactive: 1.01.
For `CC1(CN)Cc2ccccc2C1`, the relative growth was inactive: 0.994.
For `C[C@@H]1CN([C@@H](C)CO)C(=O)c2cc(NS(=O)(=O)c3ccccc3)ccc2O[C@@H](C)CCCCO[C@@H]1CN(C)C(=O)CCC(F)(F)F`, the relative growth was inactive: 1.
With `CCCNC(=O)N1C[C@@H](O)COC[C@H]2O[C@H](CC(=O)NCCCN3CCOCC3)CC[C@@H]21` the relative growth was inactive: 1.04.
`CC(C)NC(=O)N(C)C[C@@H]1OCCCC[C@H](C)Oc2ccc(NC(=O)Nc3ccc(C(F)(F)F)cc3)cc2C(=O)N([C@H](C)CO)C[C@@H]1C` was tested, and the relative growth was inactive: 1.02.
For `C[C@@H]1CCCCO[C@@H](CN(C)Cc2ccc(C(F)(F)F)cc2)[C@@H](C)CN([C@H](C)CO)C(=O)c2cc(NS(=O)(=O)c3ccc(Cl)cc3)ccc2O1`, the relative growth was inactive: 1.05.
